Assay results taken from publication PMC4336329 (PLoS ONE, 2015).
Out of some 310,000 compounds screened, about 2,200 (0.71%) showed an effect of 50% or more. The effect is printed as a negative number. Some of the results follow.

Target: human ether-à-go-go-related gene (hERG) potassium channel (human, UniProt Q12809)
Experiment: primary screen, population patch clamp on CHO cells stably expressing hERG

human ether-à-go-go-related gene (hERG) potassium channel, sequence (Q12809 whole entry, looked up): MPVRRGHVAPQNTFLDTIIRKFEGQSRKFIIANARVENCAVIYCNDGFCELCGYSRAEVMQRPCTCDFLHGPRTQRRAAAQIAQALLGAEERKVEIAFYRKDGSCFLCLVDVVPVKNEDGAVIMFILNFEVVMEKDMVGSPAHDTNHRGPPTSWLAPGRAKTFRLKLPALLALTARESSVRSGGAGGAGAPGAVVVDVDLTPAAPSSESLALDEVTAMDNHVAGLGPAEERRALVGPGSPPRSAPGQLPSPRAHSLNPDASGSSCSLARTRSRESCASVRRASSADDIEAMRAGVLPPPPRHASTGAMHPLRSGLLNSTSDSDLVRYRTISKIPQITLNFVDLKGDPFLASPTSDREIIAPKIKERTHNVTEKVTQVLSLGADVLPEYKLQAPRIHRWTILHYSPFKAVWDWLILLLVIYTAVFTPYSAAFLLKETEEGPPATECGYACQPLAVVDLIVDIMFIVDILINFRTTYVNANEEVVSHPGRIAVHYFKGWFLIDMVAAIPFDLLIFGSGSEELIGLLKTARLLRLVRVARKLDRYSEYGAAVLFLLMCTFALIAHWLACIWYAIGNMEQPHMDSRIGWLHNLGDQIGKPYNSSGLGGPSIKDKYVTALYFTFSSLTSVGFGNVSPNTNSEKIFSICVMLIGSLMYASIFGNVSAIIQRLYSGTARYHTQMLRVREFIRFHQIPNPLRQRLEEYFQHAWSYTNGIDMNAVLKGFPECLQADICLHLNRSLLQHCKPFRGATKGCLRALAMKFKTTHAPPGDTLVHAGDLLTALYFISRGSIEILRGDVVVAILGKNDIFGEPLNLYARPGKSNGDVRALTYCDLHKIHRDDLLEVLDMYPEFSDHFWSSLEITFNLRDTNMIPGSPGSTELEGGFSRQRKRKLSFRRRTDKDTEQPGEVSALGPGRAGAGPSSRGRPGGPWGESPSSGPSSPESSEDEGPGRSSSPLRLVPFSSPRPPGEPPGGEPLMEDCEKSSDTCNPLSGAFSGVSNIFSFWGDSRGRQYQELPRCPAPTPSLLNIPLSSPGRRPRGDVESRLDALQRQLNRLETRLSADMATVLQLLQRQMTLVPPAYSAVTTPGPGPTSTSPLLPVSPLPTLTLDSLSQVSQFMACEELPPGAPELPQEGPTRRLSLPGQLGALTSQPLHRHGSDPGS

Row | Structure (SMILES) | hERG current change (%, negative = inhibition) at 1uM [%]
1 | COc1ccc(S(=O)(=O)N2CCCC(C(=O)Nc3ccc4c(c3)OCCO4)C2)cc1 (stereo not shown) | 13.4
2 | Cl.O=C(O)c1ccc(CNCc2cc(Cl)ccc2O)cc1 | 4.72
3 | Cc1ccnc(Nc2nc(-c3ccc(O)c(O)c3)cs2)c1 | 11.7
4 | CC(C(=O)Nc1ccc(F)c(F)c1F)N(C)CCOc1ccccc1 (stereo not shown) | 12.2
5 | O=C(O)c1ccc(-c2ncc[nH]2)cc1 | 11.8
6 | O=C1NC2(CCSC2)C(=O)N1CC(=O)N(Cc1ccccc1)C1CCS(=O)(=O)C1 (stereo not shown) | 11.8
7 | Cc1nn(-c2ccccn2)c2c1-c1nc(N3CCOCC3)ncc1CC2 | 8.1
8 | COc1ccccc1C(=O)Nc1nnc(SCC(=O)NC2CCCC2)s1 | 17.5
9 | COc1ccc(Cn2c(SCc3cc(C)ccc3C)nc3cc(OC)c(OC)cc3c2=N)cc1 | 5.43
10 | CCOC(=O)C1CCN(C(=O)c2cc3cc4ccc(OC)cc4nc3o2)CC1 | 6.86
11 | O=C(NCCS(=O)(=O)N1CCCCCC1)c1ccc(F)cc1 | 4.62
12 | O=C(CNS(=O)(=O)c1ccccc1)NCC(=O)OCc1ccc(Cl)cc1 | 10.3
13 | O=C(NC1CCCC1)C1CCCN1S(=O)(=O)c1cccc2cccnc12 (stereo not shown) | 6.11
14 | Nc1cc(C(=O)O)ccc1N1CCCCC1 | 1.1
15 | CC1(C)Cc2c(sc(NC(=O)Cc3ccccc3)c2C#N)CO1 | 8.87
16 | CCCCn1c(SCC(=O)N2CCCCC2)nc2cc(S(N)(=O)=O)ccc21 | -2.98
17 | C/C(=N\NC(=O)Cc1ccc(F)cc1)c1ccc(F)cc1 | -4.95
18 | COc1cccc(NC(=S)N(CCC(C)C)C2CCN(C(C)=O)CC2)c1 | 6.52
19 | COC(=O)C1=C(C(C)=O)C(c2ccc(C)cc2)n2nnnc2N1 (stereo not shown) | 11.5
20 | O=C(CNc1ccc(C(F)(F)F)cc1)Nc1cccc(S(=O)(=O)N2CCCC2)c1 | 3.25
21 | CC(=O)c1cccc(OCc2cc(C(=O)NCc3nc(C)c(C)s3)no2)c1 | 11.2
22 | COc1ccc(S(=O)(=O)N2CCN(C(=O)c3cccc(Cl)c3)CC2)cc1 | 3.61
23 | CCOC(=O)C(=CNc1cccc(C)n1)C(=O)OCC | 3.1
24 | O=C(Nc1ccc(C(=O)N2CCCCC2)cc1)c1ccccc1Br | 9.57
25 | CCOC(=O)c1nn(-c2ccccc2)c(C)c1C(C)=O | 9.89
